Reference: PubChem BioAssay AID686978 (National Center for Advancing Translational Sciences (NCATS), 2013)
Where “and” joins values, the source holds several entries; their conditions need not be identical. Identical values can stand only once. In all, about 420,000 compounds went through this assay and about 64,000 (15%) were called active. The inconclusive results got no clear call from the source; some entries with a clear call stand among them for comparison. The call rests on the fitted dose curve; in most records, active means well fitted inhibition curve with a large enough effect; inconclusive means small, poorly fitted or top-dose-only effect; inactive means flat fitted curve, though single readings scatter. Potencies beside an inconclusive call are fits to weak or partial responses and may not hold up.

Test: qHTS for Inhibitors of human tyrosyl-DNA phosphodiesterase 1 (TDP1): qHTS in cells in absence of CPT; further: nearly all actives have a fitted effect of over 55% in size
Conditions: DT40 Tdp1-/- hTDP1 cells, no CPT, ATP luminescence, 48 h; activity change, negative = growth inhibition: at 46.2 µM (top of the series) unless noted
In short: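 Readout: luminescence from CellTiter-Glo after 30 min in the dark at RT. Cells: DT40 Tdp1-/- with stable hTDP1, 400/well. Exposure: compounds alone, ≥48 hr, 37 °C.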
On the % scale 0 is the no-effect control and ±100 the full control effect; potency means the concentration at half of the fitted maximal effect; tags describe the fitted curve by direction and shape.

SMILES	Potency	activity change, negative = growth inhibition
CCc1ccc(C(=O)CSc2nc(C)cc(=O)[nH]2)cc1	inconclusive: 25.9 µM [inhibitor, single point]	
CN(CC1CCCO1)S(=O)(=O)c1ccc(C(=O)Nc2nccs2)cc1 (stereo unspecified)	inconclusive: 29.1 µM [inhibitor, single point]	
CCOC(=O)C1CCN(C(=O)c2cc3ccc4cccnc4c3[nH]2)CC1	inactive	
c1ccc(CCNc2nc(-c3ccccn3)nc3ccccc23)cc1	active: 2.91 µM	
COC(=O)C1=C(C)N(Cc2ccc3c(c2)OCO3)C(=O)C1	inactive	
C=CCn1c(=S)[nH]c2cc(C(=O)N3CCN(c4ccccc4OC)CC3)ccc2c1=O	inconclusive: 29.1 µM [inhibitor, single point]	
COC(=O)C1CCN(Cc2cn(Cc3ccccc3)nc2-c2cc3ccccc3o2)CC1	active: 25.9 µM	
O=C(NCCCCc1ccccc1)c1ccc(Br)cc1	inconclusive: 4.11 µM [inhibitor, full curve, poor fit]	
CN(C(=O)COC(=O)COc1ccccc1Cc1ccccc1)c1ccccc1	inactive	
Cc1cc(OCc2ccc(C(=O)Nc3ccc(C(=O)O)cc3)o2)ccc1Cl	inactive	
CCOC(=O)c1ccccc1NC(=O)CSc1c(C)cnc2c1c(=O)n(C)c(=O)n2C	inconclusive: 29.1 µM [inhibitor, single point]	
COc1ccc2nc(NC(=O)C3CCN(S(=O)(=O)c4cccnc4)CC3)sc2c1	active: 14.6 µM	
O=C(c1ccc(NS(=O)(=O)c2cccc([N+](=O)[O-])c2)cc1)N1CCCCCC1	inconclusive: 23.1 µM [inhibitor, partial curve]	
CC(CNC(=O)CCn1c(=O)c2cccn2c2ccc(F)cc21)c1ccccc1 (stereo unspecified)	inconclusive: 20.6 µM [inhibitor, single point] and inconclusive: 16.4 µM [inhibitor, partial curve]	
COc1ccc(C(=O)/C(C#N)=N/Nc2cccc([N+](=O)[O-])c2)cc1	active: 4.11 µM	
COc1cc(/C=N/NC2=NC(C)(C)Cc3ccccc32)cc(OC)c1OC	active: 20.6 µM	
O=[N+]([O-])c1cccnc1N1CCC(c2cc(-c3ccc(Cl)cc3Cl)n[nH]2)CC1	active: 20.6 µM	
CC(C)[C@H](NC(=O)c1nn(Cc2ccccc2)c(=O)c2ccccc12)C(=O)O	inactive	
COCCOC(=O)c1c(NC(=O)CN2c3ccccc3CC2C)sc(C(N)=O)c1C (stereo unspecified)	inconclusive: 18.4 µM [inhibitor, single point]	
COc1ccc(N(CC(=O)Nc2cc(C)ccc2C)S(=O)(=O)c2ccccc2[N+](=O)[O-])c(OC)c1	active: 11.6 µM	
CN(C)CCN(C(=O)c1ccccc1Cl)c1nc2c(Cl)cccc2s1	inconclusive: 29.1 µM [inhibitor, single point]	
Cc1cc(C)c(S(=O)(=O)Nc2ccc3oc4c(c3c2)CCCC4)cc1C	inconclusive: 18.4 µM [inhibitor, single point]	
COCCCNC(=O)c1ccc(CSc2nc3cccnc3n2Cc2ccc(OC)cc2)cc1	active: 16.4 µM	

SMILES	Potency	activity change, negative = growth inhibition
COc1ccc(C(=O)c2ccc(N(C)C)cc2)c(OC)c1	active: 2.82 µM	
Cn1nc(C(=O)Nc2nc3ccc(S(C)(=O)=O)cc3s2)ccc1=O	inconclusive: 16.4 µM [inhibitor, partial curve, poor fit]	
COc1ccc(C2C=C(c3ccccc3)Nc3nc(NS(=O)(=O)c4ccccc4)nn32)cc1 (stereo unspecified)	inconclusive: 16.4 µM [inhibitor, single point]	
COc1ccc(CN2CCNC(=O)C2CC(=O)N(C)Cc2nccn2C)cc1OC (stereo unspecified)		inconclusive: -33.7% [inhibitor]
C/C=C\C=C\C(=O)Nc1cccc(C2=NOC3(C2)C[C@H](C(N)=O)N(C(=O)c2ccccc2C(=O)c2ccccc2)C3)c1 (stereo partly specified)	active: 16.4 µM	
CC[C@H]1CCCCc2ccccc2[C@@H](C(=O)C[C@@H](O)CC(C)=O)OC1=O	inconclusive: 18.4 µM [inhibitor, single point]	
CC1(C)OC(=O)C2=C(C[C@@H](CCOCc3ccccc3)O[C@H]2c2ccc(F)cc2)O1	inconclusive: 18.4 µM [inhibitor, single point]	
C[C@H]1COC(=O)[C@H](CC(=O)OC(C)(C)C)C/C=C\C[C@@H](CC(=O)N(CCO)Cc2ccccc2)C(=O)N1	inconclusive: 29.1 µM [inhibitor, single point]	
CC(C)(C)NNC(=S)Nc1cccc(C(F)(F)F)c1	active: 1.16 µM	
CCOC(=O)Cc1ncccc1C(=O)Nc1ccc(OC)cc1	inactive	
COc1ccc(CN2CCN(C3CCOCC3)CC2CCO)c(C)c1C (stereo unspecified)	inactive	
COc1ccc(NC(=O)CN(C)C(=O)c2c(-c3ccccc3Cl)noc2C)cc1	inconclusive: 23.1 µM [inhibitor, single point]	
Cc1cc(S(=O)(=O)N(Cc2ccccc2Cl)c2ccc3c(c2)CCC3)ccc1-n1cnnn1	inconclusive: 29.1 µM [inhibitor, single point]	
O=C(CCC1CCCN(C(=O)c2cccc(F)c2)C1)N1CCN(c2ccccn2)CC1 (stereo unspecified)	inactive	
O=c1c2ccccc2nnn1CSc1nnc(-c2cccnc2)n1-c1ccccc1F	inconclusive: 8.2 µM [inhibitor, full curve]	
O=C(CC(=O)Nc1ccc(Cl)cc1Cl)Nc1ccc(Cl)cc1Cl	inconclusive: 13 µM [inhibitor, partial curve]	
O=C(Nc1cccc(Cl)c1Cl)c1cc(S(=O)(=O)N2CCCCC2)ccc1F		inconclusive: -37.8% [inhibitor]
COc1ccccc1C/C(N)=N/OC(=O)c1cccs1	inconclusive: 18.4 µM [inhibitor, single point]	
CCOC(=O)c1ccccc1NS(=O)(=O)c1ccc(OC)cc1	active: 14.6 µM	
COC(=O)c1cc(=O)[nH]c(SCc2cccc(C)c2)n1	inactive	
Cc1cc2c(cc1C)[n+](C)cn2CC(O)COCc1ccccc1 (stereo unspecified)	inconclusive: 29.1 µM [inhibitor, single point]	
O=C(CN1C(=O)NC2(CCCCC2)C1=O)NCc1cccs1	inactive	
CC(c1ccco1)N(C(=O)c1cccc(S(=O)(=O)N(C)C)c1)c1ccccn1 (stereo unspecified)	inconclusive: 9.2 µM [inhibitor, partial curve]	

SMILES	Potency	activity change, negative = growth inhibition
COc1ccc(C(=O)c2coc3ccc(O)cc23)cc1	inconclusive: 16.4 µM [inhibitor, partial curve]	inactive: -21.9% [at 9.04 µM]
Cc1ccc(-n2c3nc(=O)[nH]c(=O)c-3cc3cc([N+](=O)[O-])ccc32)cc1	active: 5.17 µM	
COc1ccc(CNC(=O)NC(C)(C)c2cccc(C(C)(C)NC(=O)NCc3ccc(OC)cc3)c2)cc1	inactive	
Cc1csc(SCC(=O)c2c(N)n(C)c(=O)n(C)c2=O)n1	inactive	
Cc1ccc(C)c(S(=O)(=O)C(C#N)c2nc3ccccc3nc2N2CCOCC2)c1 (stereo unspecified)	inconclusive: 23.1 µM [inhibitor, partial curve]	
CCCCCn1c(=S)[nH]c2cc(C(=O)N3CCN(C(=O)OCC)CC3)ccc2c1=O	inconclusive: 23.1 µM [inhibitor, single point]	
CCOc1ccc2nc(SCC(=O)NCc3ccc(OC)c(OC)c3)[nH]c2c1	inconclusive: 29.1 µM [inhibitor, single point]	
CNc1ccccc(-c2ccc3ccccc3n2)c1=O	active: 23.1 µM	
CC1CC2=C(NC(=S)NC2c2ccc(F)cc2)/C(=C/c2ccc(F)cc2)C1 (stereo unspecified)	inconclusive: 20.6 µM [inhibitor, single point]	
CCN(C(=O)COC(=O)c1oc2ccc(OC)cc2c1C)C1CCCCC1	inconclusive: 16.4 µM [inhibitor, single point]	
CC(=O)N[C@@H](CSC/C=C(\C)CC/C=C(\C)CC/C=C(\C)CCC=C(C)C)C(=O)O	inconclusive: 0.164 µM [inhibitor, partial curve, poor fit]	inactive: -11.8% [at 4.12 µM]
CCCCN1CC(c2nc3ccccc3n2CCCCOc2ccccc2C)CC1=O (stereo unspecified)	active: 5.8 µM	
Cc1cnc(C(=O)Nc2nc(-c3ccccc3)cs2)cn1	inconclusive: 20.6 µM [inhibitor, single point]	
Cc1ccc(N(C(=O)c2sc(C)nc2C)C(C(=O)NC(C)(C)C)c2ccncc2)cc1 (stereo unspecified)	inactive	
COc1cccc(CN2CCCC(N3CCc4ccccc4C3)C2)c1O (stereo unspecified)	inactive	
Cc1ccc(C(=O)CN2C(=O)NC3(CCCCCC3)C2=O)c(C)c1	inconclusive: 20.6 µM [inhibitor, single point]	
Oc1cccc(-c2nc3ccccc3s2)c1	inconclusive: 20.6 µM [inhibitor, partial curve]	
COc1ccccc1N1CCN(c2nc3ccc(C(=O)c4ccccc4)cc3n3c(C)nnc23)CC1	inactive	
O=[N+]([O-])c1ccc(/C=C/c2cc(Cl)nc3ccccc23)cc1	inconclusive: 35.5 µM [inhibitor, single point]	
O=C(N/N=C/C=C\c1ccccc1[N+](=O)[O-])c1ccncc1	inconclusive: 29.1 µM [inhibitor, single point]	
CCNC(=S)Nc1ccc(Cl)cc1	inactive	
COc1ccc(OC)c(-n2nnnc2SCC(=O)N2CCN(C(=O)c3ccco3)CC2)c1	inconclusive: 29.1 µM [inhibitor, single point]	
CCc1nn(CC(=O)Nc2ccc(C)c(F)c2)c(=O)c2cc3cc(C)ccc3n12	inconclusive: 20.6 µM [inhibitor, single point]	
